Source: article PMC7819943, “Rice protein-binding microarrays: a tool to detect cis-acting elements near promoter regions in rice”
This is one part of the list.

biological target: T1, OsWOX13 (Oryza sativa, UniProt Q5QMM3 1-267); experiment: protein-binding microarray (RPBM); PBS, 2% BSA, 51.3 ng/ul salmon testes DNA, 50 uM zinc acetate, 200 nM TF, 25 C, 1 h; high values mean tight binding; settings: protein: recombinant; tags: N-terminal polyhistidine and DsRed monomer fusion (pET32a); label: CyDye5-dUTP incorporated in the synthesized complementary strand; 3' TTTTT single-stranded linker to array surface; dsDNA, one strand shown
T1 sequence: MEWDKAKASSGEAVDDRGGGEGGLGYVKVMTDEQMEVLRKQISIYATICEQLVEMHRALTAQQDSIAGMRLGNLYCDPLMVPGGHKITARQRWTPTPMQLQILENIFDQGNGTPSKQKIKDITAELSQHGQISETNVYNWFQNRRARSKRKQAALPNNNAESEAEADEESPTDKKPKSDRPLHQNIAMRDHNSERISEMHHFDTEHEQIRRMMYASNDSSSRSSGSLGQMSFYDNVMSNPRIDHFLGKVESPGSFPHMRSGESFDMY
Method in brief: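 For the binding signal, per-feature fluorescence intensity was read in arbitrary units on an Axon 4000B scanner. Before scanning, a 2% BSA-blocked custom Agilent array made double-stranded with Cy5-dUTP was washed after 1 h at 25 °C with 200 nM protein and 50 µM zinc acetate. The proteins were Ni–NTA-purified transcription factors with N-terminal polyhistidine and DsRed fusions, expressed in E. coli BL21-CodonPlus.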

Sequence	binding signal
ATTTTGATTGGTTGAGAACTGAGCGGCCCTGTAGGCTTTCCGGAGTCACCTAGTGCAG	41000 fluorescence intensity (a.u.)
TAGTAATTTATTTAGGAAAGCAACCGACTTATGGCGAAGACGGAGTCACCTAGTGCAG	3420 fluorescence intensity (a.u.)
CTTTCTTAATTGCTACTTCCTAGTTGTCTGCCTTTCTTCTCGGAGTCACCTAGTGCAG	28800 fluorescence intensity (a.u.)
CACATGTGATTGACAAATCCTAAATTACGAGTGGCAAAATCGGAGTCACCTAGTGCAG	31500 fluorescence intensity (a.u.)
CCTAATTACTCCATGATTTGATAATATGACGCTACAGTAACGGAGTCACCTAGTGCAG	25000 fluorescence intensity (a.u.)
GACAGTAATTAGTAATATTACCAAGGTTCACAATCCCGTTCGGAGTCACCTAGTGCAG	24500 fluorescence intensity (a.u.)
AGCCTTTTGATCAATTTACTTCCTCCTCCTTCTCCTTTATCGGAGTCACCTAGTGCAG	16100 fluorescence intensity (a.u.)
TTTCCGGTATTGCCATAATTAAACTTGACGGAAAGATGAGCGGAGTCACCTAGTGCAG	3170 fluorescence intensity (a.u.)
ACAGATTGCAACAAGATTGTATCACTAAACCACATGTTTCCGGAGTCACCTAGTGCAG	12100 fluorescence intensity (a.u.)
CATTCCATTCATGACGCCATTAATTTAGCTATTTGAGTCACGGAGTCACCTAGTGCAG	6290 fluorescence intensity (a.u.)
ACTATAAACAATCAACTAATCATCATTAAGAAATTACAGCCGGAGTCACCTAGTGCAG	14300 fluorescence intensity (a.u.)
TGTTGATTATTTTACTGTAATCCCTGTGTACTTCTTGTCTCGGAGTCACCTAGTGCAG	43000 fluorescence intensity (a.u.)
GAGAATTGCCCATTCAATTCGTCAGTTATGTAAAACTCATCGGAGTCACCTAGTGCAG	3680 fluorescence intensity (a.u.)
CCTCCTAATAACGTGCTAATTACGACACGTGTTAACCATACGGAGTCACCTAGTGCAG	16400 fluorescence intensity (a.u.)
TGAGGACAGCTAATTGACAGTGGTTTCCTCCGCTTATCTCCGGAGTCACCTAGTGCAG	33800 fluorescence intensity (a.u.)
TATCTCTAATTTAGTTAATTTAACTTGTTGATCGATCGCTCGGAGTCACCTAGTGCAG	21700 fluorescence intensity (a.u.)
ATCTGTCTGTCTGTCTGTCTGTTCTGTTGTATCCTTTCTTCGGAGTCACCTAGTGCAG	10600 fluorescence intensity (a.u.)
ACATGGACTCTGATTAATAATTAATCGAAAATTGTGCAAGCGGAGTCACCTAGTGCAG	17100 fluorescence intensity (a.u.)
ACAAAATTATTAAGCCTGATTAATCCATTATTGGTAAATGCGGAGTCACCTAGTGCAG	31700 fluorescence intensity (a.u.)
TCAAATATTTAAATAGTTAAATTTTAAAATATGTGCGCATCGGAGTCACCTAGTGCAG	3370 fluorescence intensity (a.u.)
GGAGTTAATTTGCTTTGCTTGTGCAAAATCTTACTGTGGGCGGAGTCACCTAGTGCAG	34400 fluorescence intensity (a.u.)

Sequence	binding signal
CAAATTTGAGCACCCTCTCATGTCACTCACGTGAGTTGACCGGAGTCACCTAGTGCAG	3220 fluorescence intensity (a.u.)
TGATTGAACAATCAATTTAGACTAAACGAACGATCATGCTCGGAGTCACCTAGTGCAG	45700 fluorescence intensity (a.u.)
GCTAGCTTTATTGATCATTAAACATTAAACATTGTTACATCGGAGTCACCTAGTGCAG	4380 fluorescence intensity (a.u.)
CTATGTAAATTAATGGTATTAGGATGATAAACTTATTTTGCGGAGTCACCTAGTGCAG	11700 fluorescence intensity (a.u.)
AGCTGGGATGGTGACGAGGATTGATTCCCATCGGTGATCCCGGAGTCACCTAGTGCAG	3340 fluorescence intensity (a.u.)
GCGCGTGCCATCAATTAATGGGCCGGGACTAGGAGTGGGCCGGAGTCACCTAGTGCAG	6190 fluorescence intensity (a.u.)
TACTACGTAATTGACTAGAGATCATGCTAGTGGCATCTTGCGGAGTCACCTAGTGCAG	39100 fluorescence intensity (a.u.)
CCTGAGTTAATTAATAGCCCGAGGCAGGGTTTGGCTGTGTCGGAGTCACCTAGTGCAG	20600 fluorescence intensity (a.u.)
CCCTCTTAATTAATAAAGCAAACATATCAGCTACTATATTCGGAGTCACCTAGTGCAG	3700 fluorescence intensity (a.u.)
ACACTATGATTATAATATATTTACATGTGTGAATTGTTTACGGAGTCACCTAGTGCAG	19900 fluorescence intensity (a.u.)
TGAAATTTCTCCACAAGGCTTGATTGAACATTGCAGCCTCCGGAGTCACCTAGTGCAG	20500 fluorescence intensity (a.u.)
CCTAAATGACATTAAGTGGAAGTACTGTAATAATTCTATTCGGAGTCACCTAGTGCAG	15400 fluorescence intensity (a.u.)
TATTCAATATGAATCTTGATTTGTTACATATTTTGAGTGGCGGAGTCACCTAGTGCAG	4250 fluorescence intensity (a.u.)
ACATTGATAGAATCGGGAGTGCATTTGCACAGCTTTACCACGGAGTCACCTAGTGCAG	21000 fluorescence intensity (a.u.)
ATTTAATATGTACTAATCCATCATTGTAACCTACTTCCTCCGGAGTCACCTAGTGCAG	3180 fluorescence intensity (a.u.)
GGTAATGATATATTGGTTTATTTGTCTTCTTACCTGCCAACGGAGTCACCTAGTGCAG	10400 fluorescence intensity (a.u.)
GGATTAATTAGGCTTAATAAATTCGTCTTGCAGTTTACAGCGGAGTCACCTAGTGCAG	22100 fluorescence intensity (a.u.)
CTTAATTAGAATCTAAAGATCTCCAAACATTCCCTTTGTCCGGAGTCACCTAGTGCAG	35200 fluorescence intensity (a.u.)
GCAATAATTGGCTGTATCTCTATTGAGCAAAGGCCGGGATCGGAGTCACCTAGTGCAG	36100 fluorescence intensity (a.u.)
GCCTTCTAAATTGACCAATCTTTCAAGCAAGAATGAAGTTCGGAGTCACCTAGTGCAG	12400 fluorescence intensity (a.u.)
CGAATCAAGCAGATAGATTGAAACGCTGACAAAACACTGGCGGAGTCACCTAGTGCAG	25100 fluorescence intensity (a.u.)

Sequence	binding signal
AAAATTAATTGTATTGGTTTTAATGTCATAGAGACGACGACGGAGTCACCTAGTGCAG	35500 fluorescence intensity (a.u.)
TGTGTCTCGTTTAATACTGATTACTATATTTTCAGGATGACGGAGTCACCTAGTGCAG	4280 fluorescence intensity (a.u.)
AATCTTATCTTAATTATCGTCATTATCTATAACTAATGATCGGAGTCACCTAGTGCAG	7430 fluorescence intensity (a.u.)
AACACCATACCAAAATCCAAATATACTTATATTTTACTTACGGAGTCACCTAGTGCAG	65000 fluorescence intensity (a.u.)
CACCACTCCATCTCCTTAATTGCACTTCCATTTCACCTCACGGAGTCACCTAGTGCAG	5200 fluorescence intensity (a.u.)
TGTTAATGAATCTAGATAGATATATATGTCTAGATTCATTCGGAGTCACCTAGTGCAG	9740 fluorescence intensity (a.u.)
GCCATGGTGATTACGAAATTAACATGTAGTACTACTAGTTCGGAGTCACCTAGTGCAG	20000 fluorescence intensity (a.u.)
ATATATTGACGATTTAGTCTCTTTCAAACATGAGGATTAGCGGAGTCACCTAGTGCAG	6970 fluorescence intensity (a.u.)
TGAAAACGTTGATGATAGGATCAATTCCCAATTCTTCTGTCGGAGTCACCTAGTGCAG	3460 fluorescence intensity (a.u.)
AAGGTTAGTGATTAGCAATAGTGTACTCCGCCTCGTCACACGGAGTCACCTAGTGCAG	16900 fluorescence intensity (a.u.)
GTTAGATTAGAACTAGCTATTTTGCATCAACTTAGTGAATCGGAGTCACCTAGTGCAG	12800 fluorescence intensity (a.u.)
GCAGGGCAACGCAGCATGATTGATTTCGTCATTCTCCTCTCGGAGTCACCTAGTGCAG	9820 fluorescence intensity (a.u.)
TAAATTTAACATTAAATATATTTTGATACAATGTTTGTTTCGGAGTCACCTAGTGCAG	4380 fluorescence intensity (a.u.)
TAAATTTGGTTACTAAACATCTCAATCAGGACTTTCCTTTCGGAGTCACCTAGTGCAG	4320 fluorescence intensity (a.u.)
CAAAATTTAGAAATTAGAATTTGAGATTCTAAACATCAAACGGAGTCACCTAGTGCAG	3520 fluorescence intensity (a.u.)
TTCCCCGGCCTCAATCACGCTTCCAGCAGTCTCCCCTGTGCGGAGTCACCTAGTGCAG	5370 fluorescence intensity (a.u.)
ATATTGATTTTGTATCTAAAGAACAGACTTACATACTACGCGGAGTCACCTAGTGCAG	12000 fluorescence intensity (a.u.)
ATAATTACTGTTTTAATCACGTGATTTCGGATTCACCAACCGGAGTCACCTAGTGCAG	25200 fluorescence intensity (a.u.)
CTTGATTAGTACAGTATAATATCAAACATGCAGAAGTTAACGGAGTCACCTAGTGCAG	17200 fluorescence intensity (a.u.)
CCACCTAACACTAATCAACCAGTCAACCACCACATCTTCCCGGAGTCACCTAGTGCAG	8120 fluorescence intensity (a.u.)
CGTAGAAGGGATTGGGTGAAATTACATGGGCATATAGGGACGGAGTCACCTAGTGCAG	4240 fluorescence intensity (a.u.)

Sequence	binding signal
ATAAAATTTCTGATTAATTACTCCACTGTTTTACTTCTCTCGGAGTCACCTAGTGCAG	25100 fluorescence intensity (a.u.)
CAATCTAATCATGGATTCCTCCTAACCAATCTCCATCAGCCGGAGTCACCTAGTGCAG	5700 fluorescence intensity (a.u.)
ACTTGTGGAGGTAATTAATTAGGAGCCTAGACTTGTACTACGGAGTCACCTAGTGCAG	9480 fluorescence intensity (a.u.)
TCGAAAATTGGTTTTGTTAATATACTAGGACTGATTTCAGCGGAGTCACCTAGTGCAG	6190 fluorescence intensity (a.u.)
TGCAAATTGGATCATAACATCGTGGTTACGTGAAATTTACCGGAGTCACCTAGTGCAG	15500 fluorescence intensity (a.u.)
TGAATGTAATTATTATAGGGTCACATTGCTGGAGATGCGACGGAGTCACCTAGTGCAG	3540 fluorescence intensity (a.u.)
CTTTTAATTTTAGTATTCAAGAATGAATTCCTCCTGCAACCGGAGTCACCTAGTGCAG	7790 fluorescence intensity (a.u.)
CGCTTAAATTTAAGAACCGACTCTTTATATTATTGTGCGACGGAGTCACCTAGTGCAG	12000 fluorescence intensity (a.u.)
GGTGTGATTATGCAGATGGGTTAGGTTGCACCGACGGGTGCGGAGTCACCTAGTGCAG	23400 fluorescence intensity (a.u.)
CAGTTTTGGTTAATTAAGTAAATAATTGTCCTCAGAAAGTCGGAGTCACCTAGTGCAG	15100 fluorescence intensity (a.u.)
GTATAGTTAATCACATAATAGAGATACATGGAAGTTGCAGCGGAGTCACCTAGTGCAG	5500 fluorescence intensity (a.u.)
ACACTATTAATTATCATGAACACTGGCACATGAATATAAACGGAGTCACCTAGTGCAG	3770 fluorescence intensity (a.u.)
TTCCTAATTGGAGCCGGATTTTGTGGCCGTAGAGCTGCCTCGGAGTCACCTAGTGCAG	43400 fluorescence intensity (a.u.)
CCCCTGACTATCCCTCAAATTTCATTCCTTTTCTTTTCCTCGGAGTCACCTAGTGCAG	3390 fluorescence intensity (a.u.)
GTAATAACCTGATGGACAGGAGAAGCATAGCATTGCAGCACGGAGTCACCTAGTGCAG	3790 fluorescence intensity (a.u.)
TCAATCCAATCCGGCTGGTAATTAAACAACACGAGCGCAGCGGAGTCACCTAGTGCAG	6090 fluorescence intensity (a.u.)
TTGCTGAATTGATGACTTCCGCTCCTGGATTGCATGCATGCGGAGTCACCTAGTGCAG	11900 fluorescence intensity (a.u.)
GACTAATTAGGCTCAAAATATTCGTGTCGCGATTTTCATGCGGAGTCACCTAGTGCAG	23200 fluorescence intensity (a.u.)
CATTTCATTAATTTAAAAGTAATTTATTTAAATTGTAGTACGGAGTCACCTAGTGCAG	21500 fluorescence intensity (a.u.)
ACCACCATTGATTAACACGACTTTAACTTAGACTATCAATCGGAGTCACCTAGTGCAG	16400 fluorescence intensity (a.u.)
ACTTGTCAATTTCCCATCACAAAGAACTAAAACCACCCATCGGAGTCACCTAGTGCAG	9180 fluorescence intensity (a.u.)
